Measured values from article PMC12040169 (PLOS Biology, 2025).
The other results are listed elsewhere or left out.

These compounds were tested on T1, C. trachomatis L2/434/Bu expressing GFP (CTL2-GFP). Conditions: total inclusion area; 28.5 h, 10 µM; inhibitor.
T1 construct: L2/434/Bu GFP intracellular growth in HeLa cells
Design: species or system HeLa; C. trachomatis total inclusion area by high-content imaging, normalised to DMSO
Procedure, shortened: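 High-content imaging followed the bulk GFP/resorufin measurement: fixed, Hoechst-stained cells were scored for GFP inclusions and host nuclei per well. Total inclusion area and count served as growth proxies, nuclei number as the viability proxy. MIC calculation matched the bulk assay.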

Row | SMILES | % of control remaining
1 | CN(C)c1ccc(-c2nccnc2NS(=O)(=O)c2ccccc2C(F)(F)F)cc1 [CBK050801] | 88.8033
2 | CSc1ncc(Cl)c(C(=O)Nc2sc3c(c2C(=O)NCc2ccccc2)CCCC3)n1 [CBK268976] | 66.7402
3 | CC(Oc1ccccc1)C(=O)Nc1ccccc1NC(=O)c1ccco1 (stereo not drawn) [CBK269636] | 90.0403
4 | COc1ccc(C)cc1NC(=O)c1cnc2n(c1=O)CCS2 [CBK287383] | 103.484
5 | CCn1nc(C)c(-c2cncn2CC(C)N2CCCCC2)c1C (stereo not drawn) [CBK281808] | 96.9224
6 | CCCN1CC(NS(=O)(=O)c2cc(-n3cccn3)ccc2OC)CC1=O (stereo not drawn) [CBK307285] | 77.9559
7 | O=C1CC(c2ccccc2)c2c(c3ccccc3[nH]c2=O)O1 (stereo not drawn) [CBK288237] | 97.3463
8 | O=S(=O)(c1ccc(C(F)(F)F)cc1Cl)N1CCCN(Cc2cccc3c2OCO3)CC1 [CBK063067] | 48.8323
9 | Cc1cnc(Nc2cccc(C3CCCN3C(=O)CCOc3ccccc3C)n2)s1 (stereo not drawn) [CBK285972] | 99.0225
10 | CN(C)C(=O)c1cc(Br)cnc1NCCCn1ccnc1 [CBK076378] | 53.5736
11 | COCCn1ccnc1C1CCN(C(=O)Cc2ccc(O)c(F)c2)CC1 [CBK306649] | 58.6709
12 | COc1ccc(CCC(=O)N2CCCC2c2ccc(Cc3ccccc3F)cn2)cc1 (stereo not drawn) [CBK285992] | 105.756
13 | COc1ccc(S(=O)(=O)N2CCN(Cc3ccc4c(c3)OCO4)CC2)c(Cl)c1Cl [CBK074433] | 86.2587
14 | CCOc1nnc(CN(CCC(N)=O)c2ccc(F)cc2)s1 [CBK305536] | 71.6307
15 | CC(C)Cn1c(-c2ccc(F)cc2)cnc1SC(C)C(=O)NC(N)=O (stereo not drawn) [CBK295635] | 80.5499
16 | CN1CCCC1CCOc1ncccc1OCc1ccccc1 (stereo not drawn) [CBK036313] | 99.3414
17 | COc1ccccc1CC(=O)Nc1ncccc1OCCCC#N [CBK304952] | 45.1095
18 | CC(=O)N1C[C@@H](c2cccc(C)c2)[C@@H]2CN(Cc3cccnc3)CC[C@@H]21 [CBK283368] | 98.0855
19 | Cn1c(C(=O)O)ccc1S(=O)(=O)NCc1ccco1 [CBK113686] | 89.6237
20 | CCOc1cc(/C=C2\SC(=N)NC2=O)cc(Cl)c1O [CBK262955] | 51.039
21 | CC(=O)Oc1ccc(NC(=O)CC2Nc3cc(C)c(C)cc3NC2=O)cc1 (stereo not drawn) [CBK263088] | 74.7387
22 | Fc1ccccc1/C=N/Nc1nccnc1Cl [CBK261711] | 85.8801
23 | Cc1ccc(O)c(NC(=S)NC(=O)COc2ccccc2)c1 [CBK264373] | 110.074
24 | O=C(c1cccs1)N1CCC[C@H]1[C@H](O)c1nccs1 [CBK284285] | 81.35
25 | CC(C)(C)OC(=O)N1CCCN(c2ccc(S(=O)(=O)c3ccccc3)c([N+](=O)[O-])c2)CC1 [CBK138502] | 85.2778
26 | CC(=O)Nc1ccc(S(=O)(=O)N2CCN(c3ccc([N+](=O)[O-])c(N4CCOCC4)c3)CC2)cc1 [CBK264764] | 98.3181

Row | SMILES | % of control remaining
27 | Cc1ccc(OCc2nnc(SCC(=O)c3ccc(Br)cc3)n2N)cc1 [CBK266482] | 103.658
28 | CC(=O)Nc1ccc(S(=O)(=O)N2CCN(S(=O)(=O)N3CCCCCC3)CC2)cc1 [CBK268983] | 82.9138
29 | COc1ccc(C(C)C)cc1-c1cnc2cccnc2c1N [CBK081211] | 89.6285
30 | Nc1nc(C2CC(N)C2)cc(N2CCC(Oc3ccccc3Cl)CC2)n1 (stereo not drawn) [CBK307356] | 14.8228
31 | CC(C)n1c(CN2CCOCC2)nc2c1c(=O)n(C)c(=O)n2C [CBK306201] | 58.6639
32 | Cc1ccc(C2CCCN2C(=O)c2cccn(CC(=O)NC3CCCCC3)c2=O)cc1C (stereo not drawn) [CBK286009] | 99.5756
33 | O=C(Nc1cccnc1)N1CCN(Cc2ccccc2)CC1 [CBK155663] | 99.0275
34 | c1coc(-c2nccnc2NCCc2c[nH]c3ccccc23)c1 [CBK037316] | 115.953
35 | CNC(=O)CN1CCN(c2cc(C#N)ccc2C(F)(F)F)CC1=O [CBK306441] | 68.4616
36 | O=c1[nH]nc2c(SC3CCCCC3)nccn12 [CBK288471] | 30.1614
37 | CC(=O)c1cccc(-n2c(CCC(=O)O)ccc2-c2ccc(Br)cc2)c1 [CBK131888] | 100.07
38 | C1CN=C(SCCCCSC2=NCCCN2)NC1 [CBK278223B] | 101.704
39 | O=C(/C=C/c1ccccc1)NC(NCc1cccnc1)C(Cl)(Cl)Cl (stereo not drawn) [CBK261804] | 61.6805
40 | COc1ccc([C@@]23CC[C@@H](NC(=O)Nc4ccc5c(c4)OC(F)(F)O5)C[C@@H]2N(C)CC3)cc1OC [CBK073743T] | 82.2098
41 | CCCc1c(Cc2c(Cl)cccc2Cl)c(=O)n(C)n1C [CBK115466] | 92.8685
42 | Cc1cc(=O)n(C)c(=O)n1CCCCCN1CCCC1 [CBK027386] | 57.5318
43 | O=C(CCOc1ccccc1F)Nc1cnc(-c2ccc(F)cc2)c(-c2ccsc2)n1 [CBK036897] | 114.651
44 | O=C1CCC[C@]2(CN(Cc3ccccc3)C[C@H]2c2ccncc2)N1 [CBK283348] | 117.491
45 | O=C(CCC1COc2ccccc2O1)N1CCN(Cc2ccccc2)CC1 (stereo not drawn) [CBK269767] | 53.9814
46 | O=C(O)c1ccc(-n2ncc3ccccc3c2=O)cc1 [CBK288229] | 106.795
47 | CC(C)(C)OC(=O)N1CCC(CNS(C)(=O)=O)CC1 [CBK003925] | 100.133
48 | CS(=O)(=O)N[C@H]1CCN2C(=O)c3cc(-c4ccc(Cl)cc4)ccc3NC(=O)[C@@H]2C1 [CBK289565] | 80.8704
49 | Cc1cccc(C)c1NC(=O)Nc1cc(N2CCNCC2)c2occc2c1 [CBK061748C] | 85.1992
50 | Fc1ccc(-c2c[nH]nc2C2CCOCC2)cc1 [CBK283464] | 85.0977
51 | CCc1nnc(SC(C)C(=O)N2CCCc3ccccc32)[nH]1 (stereo not drawn) [CBK306009] | 51.8581
